{"source": "PubChem BioAssay AID686978", "about": "(National Center for Advancing Translational Sciences (NCATS), 2013)", "note": "Where “and” joins values, the source holds several entries; their conditions need not be identical. Equal entries are not always repeated. Among all 420,000 compounds or so, about 64,000 (15%) were called active. Inconclusive results, whose numbers are uncertain, are shown with a selection of clear calls. Calls follow the shape of the dose curve; as a rule, active = well fitted inhibition curve with a large enough effect; inconclusive = small, poorly fitted or top-dose-only effect; inactive = flat fitted curve, though single readings scatter. A potency beside an inconclusive call is a rough fit, not a confirmed value. % is scaled to controls: 0 for no effect and ±100 for the full control effect; potency is read from the fitted curve at half-maximal effect; tags tell the direction and shape of the fitted curve.", "data": [{"test": "qHTS for Inhibitors of human tyrosyl-DNA phosphodiesterase 1 (TDP1): qHTS in cells in absence of CPT; also: nearly all actives have a fitted effect of over 55% in size", "settings": "DT40 Tdp1-/- hTDP1 cells, no CPT, ATP luminescence, 48 h; activity change, negative = growth inhibition: at 46.2 µM (top of the series) unless noted", "in_short": "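Growth of hTDP1-complemented DT40 Tdp1-knockout cells is measured by ATP luminescence after at least 48 hr compound exposure at 37 °C, with DMSO substituting for the 20 nM CPT used in the parallel screen.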", "values": [{"smiles": "CN(CC(=O)Nc1ccccc1Cl)C(=O)COC(=O)C1CCN(c2ccc(C(F)(F)F)cn2)CC1", "Potency": "inconclusive: 29.1 µM [inhibitor, single point]"}, {"smiles": "COCCN1C(=O)N[C@@H](CCc2ccccc2)C(C(C)=O)=C1C", "Potency": "inconclusive: 20.6 µM [inhibitor, single point]"}, {"smiles": "O=C(NCc1ccccc1F)C1CCCN(S(=O)(=O)N2CCOCC2)C1", "note": "(configuration not stated)", "Potency": "inactive"}, {"smiles": "O=C(CSc1nnc(N2CCCC2)n1-c1ccccc1Cl)N1CCN(c2ccccn2)CC1", "Potency": "inconclusive: 25.9 µM [inhibitor, single point]"}, {"smiles": "Cc1noc(-c2ccc(-c3noc(-c4ccc([N+](=O)[O-])c(C)c4)n3)cc2)n1", "Potency": "inactive"}, {"smiles": "COc1ccc(NS(=O)(=O)c2ccc3c(c2)[C@H]2C=CC[C@H]2[C@@H](c2ccc(C(=O)O)cc2)N3)cc1", "Potency": "inactive and inconclusive: 29.1 µM [inhibitor, single point]"}, {"smiles": "CCOc1ccc(NC(=O)[C@@H](c2ccccc2)N2Cc3ccccc3C2=O)cc1", "Potency": "inconclusive: 32.6 µM [inhibitor, single point]"}, {"smiles": "O=[N+]([O-])c1cccc(/C=C/c2ccc3cccc(O)c3n2)c1", "Potency": "active: 3.66 µM"}, {"smiles": "CC(C)c1ccc(N2C(=O)N(Cc3cccc([N+](=O)[O-])c3)c3ccccc3S2(=O)=O)cc1", "Potency": "inconclusive: 11.6 µM [inhibitor, partial curve]"}, {"smiles": "CC1Cc2cc(S(=O)(=O)NCc3ccc(Cl)cc3)ccc2N1C(=O)C1CCC1", "note": "(configuration not stated)", "Potency": "active: 13 µM"}, {"smiles": "CN(c1ccc(OCC(=O)N2CCOCC2)cc1)S(=O)(=O)c1ccc(Cl)cc1", "Potency": "inconclusive: 25.9 µM [inhibitor, single point]"}, {"smiles": "OCCN1CCN(Cc2cccc(Oc3ccc(Cl)cc3)c2)CC1", "Potency": "inconclusive: 20.6 µM [inhibitor, single point]"}, {"smiles": "Cc1cccn2c(=O)c(C(=O)N3CCN(c4ccc(Cl)cc4)CC3)cnc12", "Potency": "inconclusive: 29.1 µM [inhibitor, single point]"}, {"smiles": "O=C(CSc1ccccn1)N/N=C/C=C/c1ccccc1", "Potency": "inactive"}, {"smiles": "NC(=O)NC(=O)C(c1ccccc1)N1CCN(S(=O)(=O)c2ccc(Br)s2)CC1", "note": "(configuration not stated)", "Potency": "inconclusive: 16.4 µM [inhibitor, single point]"}, {"smiles": "CCN(CC)c1ccc(NC(=O)CCc2c(C)nc3ncnn3c2C)c(C)c1", "Potency": "inconclusive: 23.1 µM [inhibitor, partial curve]"}, {"smiles": "CCOC(=O)/C=c1\\s/c(=C\\c2ccccc2C)c(=O)n1CC(=O)NCc1ccc2c(c1)OCO2", "Potency": "inconclusive: 18.4 µM [inhibitor, single point]"}, {"smiles": "CC(C)CCCN1C(Nc2ccccc2)=NC[C@@H]1Cc1ccccc1", "Potency": "active: 16.4 µM"}, {"smiles": "COc1cc2c(cc1OC)C(c1cc(Br)ccc1F)N(C(=O)CCl)CC2", "note": "(configuration not stated)", "Potency": "active: 1.64 µM"}, {"smiles": "COc1cc(C2C(C(=O)Nc3ccccc3C)=C(C)Nc3nc(SCc4cc(C)ccc4C)nn32)ccc1O", "note": "(configuration not stated)", "Potency": "inconclusive: 20.6 µM [inhibitor, single point]"}, {"smiles": "COc1ccc(-c2csc(C(O)c3ccccc3)n2)cn1", "note": "(configuration not stated)", "Potency": "inconclusive: 29.1 µM [inhibitor, single point]"}, {"smiles": "CCN(CC(=O)c1c(N)n(C)c(=O)n(C)c1=O)c1cccc2ccccc12", "Potency": "inconclusive: 29.1 µM [inhibitor, single point]"}, {"smiles": "CCCOc1ccc(NC(=O)C2CC(=O)N/C(=N/N=C(\\C)CCc3ccc4c(c3)OCO4)S2)cc1", "note": "(configuration not stated)", "Potency": "inactive"}, {"smiles": "COc1cccc(-c2cccc(NC(=O)C3CCN(C4CCOCC4)CC3)c2)c1", "Potency": "inactive"}, {"smiles": "CN(C)c1ccc(CNC(=O)c2ccc(CNc3c(N4CCCCC4)c(=O)c3=O)cc2)cc1", "Potency": "inactive"}, {"smiles": "CNc1[nH]c(=O)[nH]c(=O)c1N=Nc1cc(Cl)ccc1Cl", "Potency": "inactive"}, {"smiles": "O=C(Nc1ccc2c(c1)CCC2)C1CCN(c2ncccn2)CC1", "Potency": "inconclusive: 29.1 µM [inhibitor, single point]"}, {"smiles": "CC1(C(=O)NS(=O)(=O)c2ccccc2Cl)CCN1C(=O)C1CCCCC1", "note": "(configuration not stated)", "Potency": "inactive"}, {"smiles": "CC(C)CC(c1nnnn1Cc1ccccc1)N1CCC(C(N)=O)CC1", "note": "(configuration not stated)", "Potency": "inactive"}, {"smiles": "CC(C)c1nnc(NC(=O)C2CCN(S(=O)(=O)c3ccc(-n4cnnn4)cc3)CC2)s1", "Potency": "inactive"}, {"smiles": "CCN(C[C@H]1N[C@@](C)(C(=O)OC)[C@H]2C(=O)N(Cc3ccccc3)C(=O)[C@@H]12)C(=O)c1ccc(C)cc1", "Potency": "inactive"}, {"smiles": "O=C(Nc1ccc(C(=O)O)cc1)/C(=C\\C=C\\c1ccccc1)NC(=O)c1ccccc1Br", "Potency": "inactive"}, {"smiles": "O=S(=O)(NCCc1csc2nc(-c3ccccc3)nn12)c1ccc(Oc2ccccc2)cc1", "Potency": "inconclusive: 23.1 µM [inhibitor, single point]"}, {"smiles": "Cc1cccc(NC(=O)c2ccc(C)c(S(=O)(=O)N3CCCCC3)c2)n1", "Potency": "inconclusive: 29.1 µM [inhibitor, single point]"}, {"smiles": "Cn1nc(-c2ccc(C(=O)NCC3CCCO3)cc2)c2ccccc2c1=O", "note": "(configuration not stated)", "Potency": "inconclusive: 18.4 µM [inhibitor, single point]"}, {"smiles": "O=S(=O)(Nc1cccc2ccccc12)c1ccccc1", "Potency": "inactive"}, {"smiles": "COc1ccc(OC)c(NC(=O)Cn2cc(C#N)c3cc(Br)ccc32)c1", "Potency": "inactive"}, {"smiles": "CCOC(=O)[C@]12CCC=C1N(Cc1cccc3ccccc13)C(=O)[C@H](CC(=O)N1CCN(C(=O)C3CC3)CC1)C2", "Potency": "inconclusive: 23.1 µM [inhibitor, single point]"}, {"smiles": "CCOc1ccc(NC(=O)c2ccc(OC)cc2)cc1", "Potency": "inactive"}, {"smiles": "CC(C)c1ccc(S(=O)(=O)Nc2ccc(N3CCOCC3)cc2)cc1", "Potency": "inconclusive: 23.1 µM [inhibitor, single point]"}, {"smiles": "Cc1cc(NC(=O)COC(=O)c2c(C)c(C)c(C)c(C)c2C)no1", "Potency": "inconclusive: 20.6 µM [inhibitor, single point]"}, {"smiles": "CN(C)CCn1c2c(c(SCC(=O)Nc3cccc(C(F)(F)F)c3)nc1=O)CCCC2", "Potency": "inconclusive: 29.1 µM [inhibitor, single point]"}, {"smiles": "Cc1ccc(Cl)cc1N1CCN(C(=O)c2noc3c2CCCC3)CC1", "Potency": "inconclusive: 18.4 µM [inhibitor, partial curve]"}, {"smiles": "CCOC(=O)c1cc2c(=O)n3ccccc3nc2n(Cc2ccco2)c1=NC(=O)c1cccc(Br)c1", "Potency": "inconclusive: 29.1 µM [inhibitor, single point]"}, {"smiles": "O=S(=O)(N/N=C/c1ccccc1OCc1ccc(Cl)cc1)c1ccccc1", "Potency": "inconclusive: 29.1 µM [inhibitor, single point]"}, {"smiles": "Cn1cc(Br)c(NC(=O)/C=C/C(=O)O)n1", "Potency": "inactive"}, {"smiles": "CCN(CC)CCNCc1ccc(-c2ccc(Cl)cc2)o1", "Potency": "inconclusive: 29.1 µM [inhibitor, single point]"}, {"smiles": "CC1CCCCC12NC(=O)N(CC(=O)OCc1ccc(Br)cc1)C2=O", "note": "(configuration not stated)", "Potency": "inconclusive: 29.1 µM [inhibitor, single point]"}, {"smiles": "Oc1ccc(-c2cn3c(n2)SCC3)cc1O", "Potency": "active: 23.1 µM"}, {"smiles": "C=CC1=C2C=C(C3CC3)N(C3CC3)C=C2C(=O)C(C)(OC(=O)c2ccco2)C1=O", "note": "(configuration not stated)", "Potency": "inactive"}, {"smiles": "O=C(NCCc1c[nH]c2ccccc12)C(=O)NCC1OCCCN1S(=O)(=O)c1ccc(F)cc1", "note": "(configuration not stated)", "Potency": "inconclusive: 29.1 µM [inhibitor, single point]"}, {"smiles": "COc1ccc(C(=O)c2c[nH]c3ccccc23)cc1", "Potency": "inactive"}, {"smiles": "CCc1ccccc1NC(=O)CN(C)Cc1c(O)ccc2ccccc12", "activity change, negative = growth inhibition": "inconclusive: -31.3% [inhibitor]"}, {"smiles": "CCOC(=O)c1ccc(N2N=C(C)/C(=C/C=C/c3ccco3)C2=O)cc1", "Potency": "inconclusive: 14.6 µM [inhibitor, partial curve]"}, {"smiles": "COc1ccc(Cl)cc1NC(=O)Cn1nnc2sc(-c3ccccc3)cc2c1=O", "Potency": "inconclusive: 9.2 µM [inhibitor, single point]"}, {"smiles": "O=C(NC(=S)NCCN1CCOCC1)c1ccc(Cl)cc1", "Potency": "inactive"}, {"smiles": "CCn1c2ccccc2c2cc(NC(=O)C(=O)N3CCOCC3)ccc21", "Potency": "inactive"}, {"smiles": "CCOc1ccc2[nH]c3c(NCCC(C)C)ncnc3c2c1", "Potency": "active: 18.4 µM"}, {"smiles": "Cc1ccc(CN2CCOc3ccc(CN4CCC(O)(c5cccnc5)CC4)cc3C2)cc1", "Potency": "inconclusive: 23.1 µM [inhibitor, single point]"}, {"smiles": "COc1ccc(C2=Nn3c(nnc3-c3ccncc3)SC2)cc1OC", "Potency": "inconclusive: 29.1 µM [inhibitor, single point]"}, {"smiles": "C/C(=N\\Nc1ccc(F)cc1)c1ccncc1", "Potency": "inactive"}, {"smiles": "O=C(CN1CCN(Cc2ccccc2)CC1)NCc1ccc(Cl)cc1", "Potency": "inconclusive: 18.4 µM [inhibitor, single point]"}, {"smiles": "CCCCc1c(O)c2ccccc2n(CCCC)c1=O", "Potency": "inconclusive: 29.1 µM [inhibitor, single point]"}, {"smiles": "COc1cccc2c1OCC1COc3c(c(=O)n(C)c(=O)n3C)C21", "note": "(configuration not stated)", "Potency": "inactive"}, {"smiles": "Cc1ccc(Nc2c3c(nc4ncnn24)CC(C)CC3)cc1", "note": "(configuration not stated)", "activity change, negative = growth inhibition": "inconclusive: -35.9% [inhibitor]"}, {"smiles": "O=C(NCCCc1ccccc1)c1cccc([N+](=O)[O-])c1", "Potency": "inactive"}, {"smiles": "CC/C(=N/N=C(\\CC)c1ccccc1)c1ccccc1", "Potency": "inconclusive: 20.6 µM [inhibitor, single point]"}, {"smiles": "S=C(Nc1ccccc1)Nc1ccc(Br)cn1", "Potency": "active: 3.66 µM"}, {"smiles": "C=CCNC(=O)CCC(=O)NNc1nc2ccccc2c2nc(-c3ccccc3)nn12", "Potency": "inconclusive: 16.4 µM [inhibitor, partial curve, poor fit]"}, {"smiles": "COc1ccc(-c2ccnc(SCC(=O)Nc3ccccn3)n2)cc1", "Potency": "active: 18.4 µM"}, {"smiles": "CN(C)c1ccc(C(=O)Nc2nnc(C3=COCCO3)o2)cc1", "Potency": "inconclusive: 29.1 µM [inhibitor, single point]"}, {"smiles": "COc1cccc(CNc2nc3cc(-c4cnn(Cc5ccccc5)c4)sc3c(=O)n2C)c1", "Potency": "inconclusive: 29.1 µM [inhibitor, single point]"}]}]}
